Structures are written as SMILES. The campaign covered roughly 45,000 compounds. About 65 (0.1%) were called active. The call rests on the fitted dose curve; in most records, active means well fitted activation curve with a large enough effect; inconclusive means small, poorly fitted or top-dose-only effect; inactive means no such curve, though single readings can be large or run the other way. This is one part of the list.

UniProt P54803, sequence (P54803 whole entry, looked up): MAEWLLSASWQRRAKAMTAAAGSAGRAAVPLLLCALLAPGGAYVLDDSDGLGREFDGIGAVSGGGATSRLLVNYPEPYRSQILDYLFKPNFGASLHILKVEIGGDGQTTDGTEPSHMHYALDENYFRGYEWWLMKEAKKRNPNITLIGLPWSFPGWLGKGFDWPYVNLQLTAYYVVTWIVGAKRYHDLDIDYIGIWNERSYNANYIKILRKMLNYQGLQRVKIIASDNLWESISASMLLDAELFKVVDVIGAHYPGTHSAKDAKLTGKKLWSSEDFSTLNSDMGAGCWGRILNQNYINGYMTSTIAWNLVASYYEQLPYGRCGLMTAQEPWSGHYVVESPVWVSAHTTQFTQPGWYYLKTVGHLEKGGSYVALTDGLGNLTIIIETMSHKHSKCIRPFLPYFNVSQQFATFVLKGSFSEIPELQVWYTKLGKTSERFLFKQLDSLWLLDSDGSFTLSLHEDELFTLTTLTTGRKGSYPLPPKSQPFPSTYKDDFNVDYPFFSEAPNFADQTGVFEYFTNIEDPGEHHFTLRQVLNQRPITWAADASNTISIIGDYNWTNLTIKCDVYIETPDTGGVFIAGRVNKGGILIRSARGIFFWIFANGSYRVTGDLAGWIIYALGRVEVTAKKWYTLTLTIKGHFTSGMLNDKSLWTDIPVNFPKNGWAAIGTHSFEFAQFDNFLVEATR

This experiment concerns the target Galactocerebrosidase (Homo sapiens) (UniProt P54803). Kind of experiment: A Novel Cell-Based Assay to Identify Small Molecules for B -Galactocerebrosidase. Further: 0% is about no effect; nearly all actives have a fitted effect of over 65% in size. The note with it: 145M-Twi-hGALC-G270D cells (Twitcher mouse brain line with human GALC G270D), HMU-beta-Gal fluorescence, 48 h; series mostly up to 57.5 µM; activation: at the top concentration. The essentials:
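Fluorogenic HMU-b-Gal hydrolysis (0.1 mM final, pH 5.2 citrate-phosphate with 1 mg/mL sodium taurocholate; carbonate stop buffer) measures mutant GALC activity after compound treatment of live 145M-Twi Twitcher brain cells stably carrying human GALC-G270D, with wild-type GALC line alongside; activation sought.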
For `COc1cc2c(cc1OC)n(CC(=O)c1ccc(C)cc1)c(=O)n1nc(CCn3nc(C)cc3C)nc21`, the “activation” value was inactive: -14.2%. Take `Cc1ccc(O)c(NC(=O)COCc2cc(-c3ccco3)on2)c1`: the “activation” value is inactive: -2.67%. In the case of `CC(=O)Nc1nonc1-c1nnc(SCc2ccccc2Cl)n1C` it was inactive: -5.92%; in that of `COc1ccc(OC)c(NC(=O)Cn2cc(C(=O)c3ccc(Cl)cc3)c(=O)c3cc(OC)ccc32)c1`, inactive: -16.1%; in that of `CCc1ccc2occ(CC(=O)Nc3ccc(C)c(C)c3)c2c1`, inactive: 17.4%. Next, `CCOC(=O)c1ccccc1NC(=O)c1nn(-c2ccc(OC)c(Cl)c2)c(=O)c2c1c1ccccc1n2C`: inactive: -13.7%; `Cc1ccc(CNC(=O)CCCc2nnc3n(CC(C)C)c(=O)c4sccc4n23)cc1`: inactive: -15%; `Cc1sc2ncn(CC(=O)N3CCN(c4ccccc4)CC3)c(=O)c2c1S(=O)(=O)N1CCC(C)CC1`: inactive: -18.2%. In the case of `COCCCNC(=O)C1CCN(c2nc3ccc(Cl)cc3[nH]2)CC1` it was inactive: -13.2%; in that of `CCCCCCCCOc1ccccc1C(=O)Nc1ccc(C(=O)OCC[N+](C)(CC)CC)cc1`, inactive: -10.3%. For the compound `CC1=C(c2ccc(C(C)C)cc2)S(=O)(=O)NC1=NCc1ccc(Cl)cc1`, the “activation” value is inactive: -22.9%. In the case of `Cc1cccc(NC(=O)N2CC=C(c3c[nH]c4ccccc34)CC2)c1C`, the “activation” value was inactive: -30.3%. Next, `CCN(CC)C(=O)C1CCCN(c2ncnc3c2c(-c2ccccc2)cn3-c2cccc(C)c2)C1` (stereo not given): inactive: -1.81%; `O=C(c1cc2cc3ccc(Cl)cc3nc2o1)N1CCN(c2cccc(Cl)c2)CC1`: inactive: -4.66%; `O=c1c2nncn2ccn1-c1ccc(F)c(F)c1`: inactive: -5.88%. In the case of `O=C(CN1C(=O)CSc2ccc(S(=O)(=O)N3CCCC3)cc21)NCc1ccc(F)cc1Cl`, the “activation” value was inactive: -16%. As for `COc1ccc(CNC(=O)c2ccc(CS(=O)(=O)c3ccc(Br)cc3)o2)cc1`, the “activation” value is inactive: -9.3%.

In the case of `CCCCOC(=O)c1ccc(Nc2nc3ccc(C(=O)c4ccccc4)cc3n3cnnc23)cc1`, the “activation” value is inactive: -20.7%. Next, `CCOc1ccc(OCC)c(NC(=O)c2cc(-c3cccs3)nc3ccccc23)c1`: inactive: 16.8%. In the case of `COc1ccc(-c2cn3nc(SCC(=O)Nc4cc(C)cc(C)c4)ccc3n2)cc1` it was inactive: -3.98%; in that of `CCc1cccc(C)c1NC(=O)Cn1ncc2c3ccccc3n(Cc3ccccc3)c2c1=O`, inactive: -13.2%; in that of `CCOc1ccc2c(c1)c(=O)c(S(=O)(=O)c1ccc(CC)cc1)cn2Cc1cccc(Cl)c1`, inactive: -22.2%. Next, `CN1CCN2c3ccccc3Cc3ccccc3C2C1` (stereo not given): inactive: -11.2%.

In the case of `CCCSc1ncnc2c1c(-c1ccccc1)cn2-c1ccccc1OC`, the “activation” value is inactive: -26.2%. Consider `COc1ccc(OC)c(NC(=O)CS(=O)(=O)Cc2nc(-c3ccc(C)cc3)oc2C)c1`, for which the “activation” value was inactive: -24.5%. For the compound `Cc1ccc(Cl)cc1Nc1nn2c(=O)c3ccc(C(=O)NC4CCCCC4)cc3nc2s1`, the “activation” value was inactive: -15.3%. In the case of `O=C1CCSc2ccc(S(=O)(=O)Nc3cccc(C(F)(F)F)c3)cc2N1` it was inactive: -34.2%; in that of `O=c1c(N2CCN(c3cccc(Cl)c3)CC2)csc2ccc(Cl)cc12`, inactive: -0.48%. In the case of `O=c1c2sccc2n(Cc2cc(=O)n3cc(Cl)ccc3n2)c(=O)n1-c1ccccc1`, the “activation” value is inactive: -20.8%. Next, `CCOC(=O)c1[nH]c(C)c(CCC(=O)Nc2cc(Cl)c(OC)cc2OC)c1C`: inactive: -33.8%. Regarding `O=C(NCc1ccccc1Cl)c1ccc2c(c1)N(Cc1ccccc1)CCS2`, the “activation” value is inactive: -21.5%.

`O=C(NC1CCCCCC1)c1ccc(CS(=O)c2cccc(Cl)c2)o1` (stereo not given): the “activation” value is inactive: 6.38%. In the case of `O=C(CSc1nc2ccccc2n1Cc1cccc(F)c1)N1CCN(c2ccc(F)cc2)CC1` it was inactive: -8.07%; in that of `Cc1cc(C)c(NC(=O)Cn2c(=O)n(CC(=O)NCCc3ccccc3)c(=O)c3ccccc32)c(C)c1`, inactive: 5.27%. Consider `CCC(C)NC(=O)c1cn(CC)c2ccc(S(=O)(=O)N3CCc4ccccc4C3)cc2c1=O` (stereo not given), for which the “activation” value was inactive: 0.603%. For the compound `Cc1ccc(CCNC(=O)c2ccc3c(c2)N(Cc2ccc(F)cc2)CCS3)cc1`, the “activation” value is inactive: -9.45%.

On to `CCCCc1ncc(/C=C(\Cc2cccs2)C(=O)O)n1Cc1ccc(C(=O)O)cc1`, for which the “activation” value was inactive: -6.71%. In the case of `Cc1nc(-c2ccc(C)c(S(=O)(=O)N3CCC(C(=O)NCc4ccc(F)cc4)CC3)c2)no1` it was inactive: -2.73%; in that of `COc1ccccc1N1CCN(S(=O)(=O)CCNC(=O)C(c2ccccc2)c2ccccc2)CC1`, inactive: -16.7%.

On to `COc1ccc(S(=O)(=O)N(CCc2ccccc2)CC(=O)Nc2cc(C)cc(C)c2)cc1OC`, for which the “activation” value is inactive: -18%. In the case of `O=C1NC2CCCCN2C12CCN(CCCN1c3ccccc3CCc3ccc(Cl)cc31)CC2` (stereo not given) it was inactive: -8.03%; in that of `CC(=O)c1cccc(N2C(=O)CN(S(C)(=O)=O)CC2(C)C(=O)NC2CCCC2)c1` (stereo not given), inactive: -9.8%. In the case of `CCc1ccc(NC(=O)Cn2c(=O)n(CCc3ccccc3)c(=O)c3sc4ccccc4c32)cc1` it was inactive: 3.86%.

Consider `Cc1cc(N2CCC(C)CC2)nc2ccc(NC(=O)CCC(=O)N3CCN(c4ccccc4F)CC3)cc12`, for which the “activation” value is inactive: -7.13%.

Take `O=S(=O)(c1ccc2nc(Nc3ccc(F)cc3)ccc2c1)N1CCCC1`: the “activation” value is inactive: -11.2%. As to `Cc1cccc(-n2nnc(-c3nc(-c4cccs4)no3)c2N)c1`, the “activation” value is inactive: -23.4%. For the compound `Cc1ccc(C)c(CNC(=O)CN2C(=O)CSc3ccc(S(=O)(=O)N(C)C)cc32)c1`, the “activation” value was inactive: -29%.

Turning to `CCOc1ccccc1NC(=O)CCc1c(C)nc2cc(-c3ccccc3)nn2c1C`, the “activation” value is inactive: -16.5%. Next, `Cc1ccc(NC(=O)CN(c2ccc(C)cc2)S(=O)(=O)c2cccc3nonc23)cc1`: inactive: -30.6%; `CC(C)C(=O)Nc1cccc(C(=O)Nc2nnc(C(F)(F)F)s2)c1`: inactive: -11.8%; `Cc1ccc(NC(=O)Cn2nc(-c3ccccc3)nc(Cc3ccccc3)c2=O)cc1`: inactive: -2.94%.

As to `COc1ccc(-n2nc(-c3ccc(C)cc3)c3cnc4cc(F)c(F)cc4c32)cc1`, the “activation” value is inactive: -10.6%.

With `COc1cccc(CNC(=O)c2ccc3c(c2)nc2n3CCC(C)C2)c1` (stereo not given), the “activation” value was inactive: -20.3%.

Take `CCCN(CCC)C(=O)c1nn(C)c2c1CSc1ccccc1-2`: the “activation” value was inactive: -10.1%. For `COc1cccc(NC(=O)Cn2c(=O)n(CCc3cccc(C)c3)c(=O)c3ccccc32)c1`, the “activation” value is inactive: -9.53%. Next, `CCOCCCn1c(=N)c(C(=O)NCc2ccccc2)cc2c(=O)n3ccccc3nc21`: inactive: -5.74%; `Cc1c2cnn(-c3ccccc3)c(=O)c2c(C)n1C(C)C(=O)NCc1cccc(Br)c1` (stereo not given): inactive: -6.17%; `Cc1cccc(NC(=O)c2c(NC(=O)c3ccco3)sc3c2CCC(C)C3)c1` (stereo not given): inactive: -13.7%. With `CCOc1ccc2nc(N3CCCC(C(=O)NCCc4ccc(C)cc4)C3)sc2c1` (stereo not given), the “activation” value is inactive: -13.8%. `CC(C(=O)Nc1ccccc1)n1nnc2sc3c(c2c1=O)CCCC3` (stereo not given): the “activation” value is inactive: -12.6%. As for `Cc1ccc(NC(=O)CSc2nc3ccccc3n2CC(=O)N(C)C2CCCCC2)cc1C`, the “activation” value is inactive: -7.52%. In the case of `Cc1ccccc1C(=O)Nc1ccccc1-c1nc(-c2ccccc2)no1` it was inactive: 9.98%. Next, `Cc1nc(-c2cccc(F)c2)sc1CCNC(=O)C(=O)Nc1ccc2c(c1)OCCO2`: inactive: -6.78%; `CCc1nc2nc(C)c(NS(=O)(=O)c3ccc(F)c(C)c3)c(=O)n2[nH]1`: inactive: -0.259%; `Cc1cc(C(=O)NCc2ccccc2)c2c(C)nn(-c3cccc(Cl)c3C)c2n1`: inactive: -7.4%. For `Cc1ccc(NC(=O)C2CCCN2S(=O)(=O)c2ccc3nc(-c4ccccc4)[nH]c3c2)cc1C` (stereo not given), the “activation” value was inactive: -39%. Consider `Cc1cccc(NC(=O)Nc2nnc(N3CCCC3)s2)c1`, for which the “activation” value is inactive: -13.7%. In the case of `CCCCn1c(CNC(=O)C23CC4CC(CC(C4)C2)C3)nnc1SCC(=O)Nc1ccc(F)cc1` it was inactive: -25.8%. Next, `Cc1cccc(Cn2c(=O)n(Cc3ccccc3)c(=O)c3sc4ccccc4c32)c1`: inactive: 0.331%. As to `Cc1ccc(-n2cnc3cc(C(=O)NCCC4=CCCCC4)ccc32)cc1Cl`, the “activation” value was inactive: -12.9%.

On to `CCc1ccccc1N(CC)C(=O)Cn1nc(Cc2ccncc2)c2ccccc2c1=O`, for which the “activation” value was inactive: -21.8%. For the compound `Cc1ccc(S(=O)(=O)C(CNS(=O)(=O)c2ccc(F)c(C)c2)c2cccs2)cc1` (stereo not given), the “activation” value was inactive: -14.7%. As for `O=C(NCCS(=O)(=O)N1CCN(c2ccccc2F)CC1)C1CC(=O)N(c2ccc(F)cc2)C1` (stereo not given), the “activation” value is inactive: -11.8%. Turning to `COc1ccc(CNC(=O)C(=O)NCC(c2cccs2)S(=O)(=O)c2cccs2)cc1` (stereo not given), the “activation” value is inactive: -12.2%. In the case of `O=C(CCc1nc(-c2cccs2)no1)Nc1ccc([N+](=O)[O-])cc1` it was inactive: -6.64%; in that of `Cc1ccc(OCC(=O)Nc2cccc3ccc(C)nc23)c(C)c1`, inactive: -12.5%; in that of `Cc1cccc(NC(=O)COc2ccc3oc4c(c3c2)CCCC4)c1`, inactive: -21%. Next, `Cc1cn2c(=O)c(S(=O)(=O)NCc3ccc(F)cc3)c(C)nc2s1`: inactive: -10.4%. Take `Cc1ccc(CNC(=O)CSCc2nc(-c3cccc(C)c3)oc2C)cc1`: the “activation” value was inactive: -12.8%. Take `CCC(NC(=O)Nc1cccc(C)c1)c1c(-n2cccc2)sc2c1CCN(C)C2` (stereo not given): the “activation” value was inactive: -15%. As to `O=C(CCC1N=C2c3ccccc3N=C(SCC(=O)NCCc3ccccc3)N2C1=O)NCc1ccc(F)cc1` (stereo not given), the “activation” value is inactive: -20.2%. In the case of `O=C(NCc1ccccc1Cl)c1ccc(-n2cnc3cccnc32)cc1` it was inactive: -17.2%. In the case of `CCOc1ccccc1NC(=O)Cn1nc(N2CCN(c3ccccc3)CC2)ccc1=O` it was inactive: -25.7%; in that of `Cn1c(/C(C#N)=C/c2ccc(C(F)(F)F)cc2)nc2ccccc21`, inactive: -15.8%; in that of `COc1ccccc1CNC(=O)CSc1cc(C)[nH]c(=O)n1`, inactive: -10.1%. As for `Cc1ccn2c(Nc3ccc4c(c3)OCCO4)c(-c3ccc(N(C)C)cc3)nc2c1`, the “activation” value is inactive: -12.4%. Next, `COc1ccc(-c2c(C)nn3c(N4CCN(c5cc(Cl)ccc5C)CC4)cc(C)nc23)cc1OC`: inactive: -0.21%. Next, `CCOc1ccc(OCC)c(NC(=O)C2CCCN(S(=O)(=O)c3ccc(C)cc3)C2)c1` (stereo not given): inactive: -15.1%; `CCCN(CCC)C(=O)Cn1c(=O)n(-c2ccc(Cl)c(Cl)c2)c(=O)c2c(C)c(C(=O)N(C)C)sc21`: inactive: -9.25%; `O=C(Cn1c(=O)n(-c2ccccc2Cl)c(=O)c2sc3ccccc3c21)NC1CCCC1`: inactive: -7.67%. As for `CCOc1ccc(-c2nnc(SCC(=O)N(CC)c3cccc(C)c3)o2)cc1`, the “activation” value is inactive: -21.3%.

With `COc1ccc(CCNC(=O)Cn2c(-c3ccc(F)cc3)cc(C(C)=O)c2C)cc1OC`, the “activation” value is inactive: -3.69%.

Take `CCOC(=O)Cn1c(CN2CCN(c3ccc(OC)cc3)CC2)nc2c1c(=O)[nH]c(=O)n2C`: the “activation” value was inactive: 2.16%.

With `Cc1cc(=O)n(Cc2c(F)cccc2Cl)c2c1c(C)nn2C`, the “activation” value is inactive: -2.01%. For `CCOC(=O)C1CCN(C(=O)CSc2n[nH]c(-c3ccc(OC)cc3)n2)CC1`, the “activation” value was inactive: -8.32%.

Values taken from PubChem BioAssay AID1159614 (National Center for Advancing Translational Sciences (NCATS), 2016).
